Assay results from the supplement of paper PMC10126150.
Values marked as one replicate rest on one cluster of the flow cell; about a third of the high ones do not repeat.

tested on: ATP; experiment: switch fluorescence ratio, 500 uM ATP over buffer (Cy3 cluster intensity, sum of 5 cycles each) (fold (ratio)); higher = stronger signal-on switching upon ATP binding; sequences stand for … in TCGTCGGCAGCGTCAGATGTGTATAAGAGACAGTTTTTTTTTTTTTTTTTTTTTTTTT…TC; settings: aptamer strand: ATP DNA aptamer (quencher-CACCTGGGGGAGTATTGCGGAGGAAGG + anchor), 100 nM annealed; ATP concentration: 500 uM; one replicate
In short: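 The quencher-labelled ATP aptamer, at 100 nM, was annealed to Cy3-labelled switching-strand clusters on a modified Illumina MiSeq flow-cell. The clusters were imaged in selection buffer, then after 15 min with 500 uM ATP at 22 °C, and this buffer/ATP cycle ran five times with NaOH stripping and re-annealing between runs. Per-cluster fluorescence ratios, summed target-cycle over summed buffer-cycle Cy3 intensity, were averaged per switch-domain sequence. Clusters outside 100-1000 RFU were excluded.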
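Also: ATP exposure 15 min at 22 °C before imaging.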

| Sequence | switch fluorescence ratio |
| --- | --- |
| TTTCGCTTCC | 2.26 |
| TTTCGGCAAT | 1.36 |
| TTTCGTCTGA | 1 |
| TTTCGTGTCT | 0.959 |
| TTTCGTTC | 1.05 |
| TTTCTAGCAG | 0.995 |
| TTTCTATTAT | 1.03 |
| TTTCTCATCG | 0.962 |
| TTTCTCGCAT | 4.08 |
| TTTCTGAGTC | 1.04 |
| TTTCTGCGAT | 1.23 |
| TTTCTGGAAA | 1.04 |
| TTTCTGGCAC | 1.04 |
| TTTCTGGG | 0.957 |
| TTTCTTACCG | 1.02 |
| TTTCTTACTA | 1.07 |
| TTTCTTCGA | 1.04 |
| TTTCTTCGAA | 1.02 |
| TTTCTTTTCA | 1.06 |
| TTTGAAAAG | 1.06 |
| TTTGAACACC | 1.23 |
| TTTGAACAGC | 1.02 |
| TTTGACCAAA | 0.994 |
| TTTGACCGCT | 1.03 |
| TTTGACGCAG | 1.02 |

| Sequence | switch fluorescence ratio |
| --- | --- |
| TTTGACGTGG | 0.945 |
| TTTGAGGCGA | 1.1 |
| TTTGAGTTA | 1 |
| TTTGATAGCA | 1.07 |
| TTTGATAGGT | 0.975 |
| TTTGCAAATC | 1.14 |
| TTTGCACT | 1.02 |
| TTTGCATAAA | 1.02 |
| TTTGCATATG | 0.97 |
| TTTGCCGACA | 0.988 |
| TTTGCGATGC | 2.24 |
| TTTGCGCATT | 1.05 |
| TTTGCGCTAA | 2.06 |
| TTTGCGTCC | 1.01 |
| TTTGCTCCAT | 1.21 |
| TTTGCTCGAA | 1.02 |
| TTTGCTTACT | 3.57 |
| TTTGCTTGCG | 0.996 |
| TTTGGCGGGT | 1.03 |
| TTTGGCTACT | 0.977 |
| TTTGGGGG | 0.95 |
| TTTGGGTGCT | 1.04 |
| TTTGTACGAT | 0.981 |
| TTTGTACGTG | 1.05 |
| TTTGTCACCC | 1.07 |

| Sequence | switch fluorescence ratio |
| --- | --- |
| TTTGTCGGTT | 0.994 |
| TTTGTCGTT | 0.99 |
| TTTGTCTACC | 0.993 |
| TTTGTCTGTA | 0.974 |
| TTTGTCTTGT | 0.975 |
| TTTGTGCAT | 0.992 |
| TTTGTGGTG | 1.03 |
| TTTGTGTAA | 0.972 |
| TTTGTTAAGA | 1.05 |
| TTTGTTGCTA | 0.976 |
| TTTGTTGGT | 0.989 |
| TTTTAAAGT | 1.01 |
| TTTTAACCTC | 0.921 |
| TTTTACCGAC | 1.06 |
| TTTTACGTAC | 1.7 |
| TTTTAGAAAC | 1.02 |
| TTTTAGATTA | 0.989 |
| TTTTAGATTC | 0.999 |
| TTTTAGCGAT | 1.05 |
| TTTTATACGA | 1.06 |
| TTTTATCTAT | 1.01 |
| TTTTATTAA | 0.992 |
| TTTTATTAG | 0.998 |
| TTTTCAGCCA | 1.05 |
| TTTTCATAGT | 1.01 |

| Sequence | switch fluorescence ratio |
| --- | --- |
| TTTTCATGCA | 1.02 |
| TTTTCCAG | 1 |
| TTTTCGAGCC | 1.03 |
| TTTTCGGTTC | 1.03 |
| TTTTCGTAAC | 1.01 |
| TTTTCTCAGT | 0.97 |
| TTTTCTGCAA | 3.99 |
| TTTTCTTCGT | 0.983 |
| TTTTGAACGG | 0.974 |
| TTTTGCAAT | 6.53 |
| TTTTGCCAGA | 0.989 |
| TTTTGCCCTG | 1.05 |
| TTTTGCCTAC | 1 |
| TTTTGCGTT | 1.02 |
| TTTTGGCTCG | 0.987 |
| TTTTGGTCAG | 1.01 |
| TTTTTATGTA | 1.06 |
| TTTTTCCTT | 1.03 |
| TTTTTCGCG | 1.01 |
| TTTTTGCAGC | 1.02 |
| TTTTTGTAC | 1.06 |
| TTTTTGTG | 0.986 |
| TTTTTTACGC | 1.04 |
| TTTTTTCAGT | 1.01 |
| TTTTTTGG | 0.975 |
